# Measurements published in PMC7819943, “Rice protein-binding microarrays: a tool to detect cis-acting elements near promoter regions in rice”.
# The list shows a part of the results.
# Biological target: T1, OsWOX13 (Oryza sativa, UniProt Q5QMM3 1-267)
# T1 sequence: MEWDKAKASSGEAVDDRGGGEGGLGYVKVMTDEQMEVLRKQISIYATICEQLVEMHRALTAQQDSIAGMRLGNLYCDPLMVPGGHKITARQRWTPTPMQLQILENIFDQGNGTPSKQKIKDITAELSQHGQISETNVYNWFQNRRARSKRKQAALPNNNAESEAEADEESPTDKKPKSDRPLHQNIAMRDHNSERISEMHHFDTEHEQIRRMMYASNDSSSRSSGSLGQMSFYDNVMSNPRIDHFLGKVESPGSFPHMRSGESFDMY
# Assay: protein-binding microarray (RPBM); PBS, 2% BSA, 51.3 ng/ul salmon testes DNA, 50 uM zinc acetate, 200 nM TF, 25 C, 1 h; high values mean tight binding
# Details: protein: recombinant; tags: N-terminal polyhistidine and DsRed monomer fusion (pET32a); label: CyDye5-dUTP incorporated in the synthesized complementary strand; 3' TTTTT single-stranded linker to array surface; dsDNA, one strand shown
# Outline: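 Ni–NTA purification followed expression in E. coli BL21-CodonPlus of transcription factors fused N-terminally to a polyhistidine tag and DsRed. At 200 nM in PBS with 2% BSA, salmon testes DNA and 50 µM zinc acetate, the protein was incubated for 1 h at 25 °C with a custom Agilent array that had been primer-extended with Cy5-dUTP and blocked with 2% BSA. After washing, the array was read on an Axon 4000B scanner. The binding signal is per-feature fluorescence intensity in arbitrary units.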
row,Sequence,binding signal
1,AAAATTGGAACAAAATTAGATGTGATACCTAACCCTTCAACGGAGTCACCTAGTGCAG,7810 fluorescence intensity (a.u.)
2,TTAAATTCAATTCAAAATGTCAACAGGCAGCGGGAACTGGCGGAGTCACCTAGTGCAG,3730 fluorescence intensity (a.u.)
3,CACTAATGTTGCAACAAACTGATAGTTTGTCACTATAGTTCGGAGTCACCTAGTGCAG,5340 fluorescence intensity (a.u.)
4,CCAGTGATCAATTTAGCTCCATTTCACTAGTGCAATCTGTCGGAGTCACCTAGTGCAG,9160 fluorescence intensity (a.u.)
5,TTGTTACTTTAATTTGTACATCATCATGCGGGTCCGTATACGGAGTCACCTAGTGCAG,8240 fluorescence intensity (a.u.)
6,AGTTAATACTCAATTAATCATGCGCTAATGGCTCACCTCGCGGAGTCACCTAGTGCAG,20400 fluorescence intensity (a.u.)
7,AATTCTTAATTTCATCTATTACCTGGTACGCATGAATCCTCGGAGTCACCTAGTGCAG,3550 fluorescence intensity (a.u.)
8,AACACCAGAGAACCCGTTGATTGGCCTATATCAGGAAGGGCGGAGTCACCTAGTGCAG,11200 fluorescence intensity (a.u.)
9,GATGATGATGGATGCGATTGACTGATGAGACGTCTGCTAACGGAGTCACCTAGTGCAG,50300 fluorescence intensity (a.u.)
10,GAACAATCAGTAAATTGCATTTCACTTGTTGGGCTCCTAGCGGAGTCACCTAGTGCAG,10800 fluorescence intensity (a.u.)
11,TGCCAACATAAACTCAATCAAACATGAAAATTTCAAATCCCGGAGTCACCTAGTGCAG,3760 fluorescence intensity (a.u.)
12,CCATCGATTTGATTTTATATGATGCAACTTGGTGTTATCCCGGAGTCACCTAGTGCAG,3370 fluorescence intensity (a.u.)
13,ACAAATTGAGTGTTATAGTGAGATGGCATCGGAGATGAGCCGGAGTCACCTAGTGCAG,32400 fluorescence intensity (a.u.)
14,TGCCCGATTGAGATATTTTCCCACATCACTGACCTTTGGTCGGAGTCACCTAGTGCAG,6020 fluorescence intensity (a.u.)
15,TCTTTAACCGTTCAATTATTTGCTCGAGGTTACAGAGAATCGGAGTCACCTAGTGCAG,6830 fluorescence intensity (a.u.)
16,AACTGTTTTGATTTATTAGGGAATGTTGTCAACCAATGAACGGAGTCACCTAGTGCAG,6480 fluorescence intensity (a.u.)
17,TAGGTGACAGTTTATTTAATGCTATTGACACTATTCTAGCCGGAGTCACCTAGTGCAG,8640 fluorescence intensity (a.u.)
18,GGTTGTGACATGAATTGATTTGATGATCACAAGTCCTATCCGGAGTCACCTAGTGCAG,29500 fluorescence intensity (a.u.)
19,ATCATGGGATGATTGATTAGGGATTCGAAAGAATACAATACGGAGTCACCTAGTGCAG,46400 fluorescence intensity (a.u.)
20,AGATAAATTGCTTTTGCTAATTCAGTTCGCTTATGGAAAGCGGAGTCACCTAGTGCAG,11900 fluorescence intensity (a.u.)
21,AGTAATTGATTTATTTTGTAAAACGTGCGCGACCCATGTTCGGAGTCACCTAGTGCAG,48200 fluorescence intensity (a.u.)
22,GCTTACACCTAATTAACTAACAAGCACCTATATATACACCCGGAGTCACCTAGTGCAG,9070 fluorescence intensity (a.u.)
23,GTTTGATTTGGGAATATGCATCCCACTCGATTTGGGAGAACGGAGTCACCTAGTGCAG,17600 fluorescence intensity (a.u.)
